Measurements: PubChem BioAssay AID504333 (National Center for Advancing Translational Sciences (NCATS), 2011)
In all, about 360,000 compounds went through this assay and about 16,000 (4.4%) were called active. Inconclusive results, whose numbers are uncertain, are shown with a selection of clear calls. Calls come from the whole dose curve; as a rule, active = well fitted inhibition curve with a large enough effect; inconclusive = small, poorly fitted or top-dose-only effect; inactive = no such curve, though single readings can be large or run the other way. Where the call is inconclusive, the potency comes from a doubtful curve fit.

biological target: Bromodomain adjacent to zinc finger domain protein 2B (Homo sapiens) (UniProt Q9UIF8); test: qHTS Assay for Inhibitors of BAZ2B; settings: AlphaScreen BAZ2B-H3K14Ac peptide displacement; series mostly up to 114 µM; note: nearly all actives have a fitted effect of over 60% in size
Chain of UniProt Q9UIF8 (Q9UIF8 whole entry, looked up, the tested form may be a part): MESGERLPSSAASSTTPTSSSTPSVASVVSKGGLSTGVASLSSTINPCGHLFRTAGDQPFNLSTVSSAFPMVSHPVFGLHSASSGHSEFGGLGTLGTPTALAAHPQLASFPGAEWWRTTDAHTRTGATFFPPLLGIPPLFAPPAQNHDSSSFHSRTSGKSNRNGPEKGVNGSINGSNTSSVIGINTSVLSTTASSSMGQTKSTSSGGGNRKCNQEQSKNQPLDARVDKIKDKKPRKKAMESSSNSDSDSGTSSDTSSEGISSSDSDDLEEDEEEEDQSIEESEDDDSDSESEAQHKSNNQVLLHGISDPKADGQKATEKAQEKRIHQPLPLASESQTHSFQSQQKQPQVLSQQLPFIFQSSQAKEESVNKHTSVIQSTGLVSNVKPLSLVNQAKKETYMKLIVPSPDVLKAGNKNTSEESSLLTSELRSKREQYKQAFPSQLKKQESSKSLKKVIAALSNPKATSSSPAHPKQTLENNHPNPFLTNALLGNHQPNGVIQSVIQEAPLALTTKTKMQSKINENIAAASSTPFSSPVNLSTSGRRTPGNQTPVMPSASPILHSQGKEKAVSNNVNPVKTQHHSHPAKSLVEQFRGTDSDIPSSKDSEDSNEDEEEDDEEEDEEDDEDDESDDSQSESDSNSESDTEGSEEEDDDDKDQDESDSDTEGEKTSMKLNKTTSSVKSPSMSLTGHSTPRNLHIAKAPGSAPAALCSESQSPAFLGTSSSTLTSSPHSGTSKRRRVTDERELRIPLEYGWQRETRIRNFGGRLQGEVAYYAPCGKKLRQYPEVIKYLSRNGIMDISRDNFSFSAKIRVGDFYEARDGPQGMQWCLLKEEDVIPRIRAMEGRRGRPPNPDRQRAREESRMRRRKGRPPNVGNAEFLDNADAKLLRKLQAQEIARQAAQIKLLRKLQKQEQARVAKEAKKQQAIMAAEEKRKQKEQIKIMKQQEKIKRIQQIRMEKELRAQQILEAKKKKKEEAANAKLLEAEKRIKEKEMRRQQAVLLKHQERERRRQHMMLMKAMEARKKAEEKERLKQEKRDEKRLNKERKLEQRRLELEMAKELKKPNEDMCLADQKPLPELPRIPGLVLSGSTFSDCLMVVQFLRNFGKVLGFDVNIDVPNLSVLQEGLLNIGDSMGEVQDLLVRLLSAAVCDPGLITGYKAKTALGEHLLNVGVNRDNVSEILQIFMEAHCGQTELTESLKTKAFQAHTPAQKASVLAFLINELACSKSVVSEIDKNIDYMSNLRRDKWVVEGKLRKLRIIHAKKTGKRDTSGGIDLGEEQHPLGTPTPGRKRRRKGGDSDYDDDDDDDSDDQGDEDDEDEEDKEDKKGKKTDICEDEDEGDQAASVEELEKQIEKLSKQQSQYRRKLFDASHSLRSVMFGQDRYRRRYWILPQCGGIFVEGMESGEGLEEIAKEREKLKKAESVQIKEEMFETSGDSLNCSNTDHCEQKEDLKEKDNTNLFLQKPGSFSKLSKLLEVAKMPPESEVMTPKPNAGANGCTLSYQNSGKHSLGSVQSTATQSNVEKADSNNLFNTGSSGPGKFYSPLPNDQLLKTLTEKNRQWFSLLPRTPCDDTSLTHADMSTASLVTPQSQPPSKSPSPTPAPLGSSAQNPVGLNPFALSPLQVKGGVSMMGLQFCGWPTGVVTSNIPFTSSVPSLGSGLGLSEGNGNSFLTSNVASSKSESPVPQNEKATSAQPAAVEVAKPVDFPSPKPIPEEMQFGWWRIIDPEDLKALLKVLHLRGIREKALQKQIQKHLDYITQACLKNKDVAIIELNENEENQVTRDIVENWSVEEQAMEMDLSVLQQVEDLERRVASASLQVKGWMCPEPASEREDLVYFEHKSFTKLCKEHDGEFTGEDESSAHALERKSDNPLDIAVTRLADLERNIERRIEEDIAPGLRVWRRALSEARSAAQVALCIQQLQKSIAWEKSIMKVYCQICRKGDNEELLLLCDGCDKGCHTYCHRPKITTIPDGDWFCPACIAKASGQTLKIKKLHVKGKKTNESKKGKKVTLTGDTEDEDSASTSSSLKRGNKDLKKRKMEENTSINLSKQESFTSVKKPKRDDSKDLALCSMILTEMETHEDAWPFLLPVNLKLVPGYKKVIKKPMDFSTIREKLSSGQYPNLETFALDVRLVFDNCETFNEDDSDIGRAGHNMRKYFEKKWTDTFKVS
In short: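 Multi-concentration screen (max 110 uM) measuring displacement of acetylated histone H3 peptide from BAZ2B by AlphaScreen, using 50 nM protein, 50 nM peptide and 10 ug/mL streptavidin donor plus Ni-chelate acceptor beads.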
Potency is the fitted concentration of half-maximal effect; tags give direction and shape of the fitted curve.

| Compound | Potency |
| --- | --- |
| O=C(Nc1nnc(S(=O)(=O)N2CCc3ccccc32)s1)c1cccc(Cl)c1 | inconclusive: 89.1 µM [inhibitor, single point] |
| CCN(CC)c1ccc(/C=C2/C(=O)ON=C2C)cc1 | active: 39.8 µM |
| O=c1nc2ccccc2c2n1CC(CN1CCN(C(c3ccccc3)c3ccccc3)CC1)N2 (stereo not drawn) | inconclusive: 35.5 µM [inhibitor, full curve] |
| Cc1cc(Cl)ccc1OCC(=O)NCCOC(=O)Nc1sc(=S)n(C)c1C | inconclusive: 89.1 µM [inhibitor, single point] |
| O=Cc1cn(CC(=O)N2CCCCC2)c2ccccc12 | inactive |
| Cc1cccc(NC(=S)NCc2ccc3[nH]c4c(c3c2)CCCC4)c1 | active: 39.8 µM |
| O=c1ccc(-c2ccc(S(=O)(=O)NCC3CCN(Cc4cccc(F)c4)CC3)s2)n[nH]1 | inconclusive: 79.4 µM [inhibitor, single point] |
| CCCCOC(=O)CCc1nc2ccccc2[nH]1 | inconclusive: 3.55 µM [inhibitor, single point] |
| O=C(N/N=C(\c1ccccc1)c1ccccn1)c1cccc([N+](=O)[O-])c1 | active: 25.1 µM |
| COc1cccc(CNC(=O)C(C)n2c(=O)cc(-c3ccccc3)c3c(C)nn(C)c32)c1 (stereo not drawn) | inactive |
| O=C(Cn1[nH]c(=O)c2ccccc2c1=O)N1CC=C(c2ccccc2)CC1 | inconclusive: 35.5 µM [inhibitor, single point] |
| O=C(Cn1cc(SCc2c(F)cccc2Cl)c2ccccc21)N1CCCC1 | inconclusive: 89.1 µM [inhibitor, single point] |
| O=c1nc(Nc2cccc(Cl)c2)oc2cc(Cl)oc(=O)c12 | inconclusive: 89.1 µM [inhibitor, single point] |
| O=C(CN(c1ccccc1)S(=O)(=O)c1ccccc1)NCCSCc1ccco1 | active: 50.1 µM |
| CC1=NN(C(N)=S)C(=O)C1N=Nc1c(C)cc(C)cc1C (stereo not drawn) | inconclusive: 12.6 µM [inhibitor, single point] |
| COc1cc(/C=C2/C(C)=C(C#N)c3nc(N)c(C#N)c(C)c32)ccc1OCC(=O)O | active: 44.7 µM |
| CSc1nc(SCC(=O)O)c2sc3nc(-c4ccccc4)c4c(c3c2n1)CCC4 | active: 22.4 µM |
| N/C(=N\OC(=O)c1ccc([N+](=O)[O-])cc1Cl)c1ccccn1 | active: 56.2 µM |
| Nc1c(C(=O)NCCN2CCOCC2)c2nc3ccccc3nc2n1-c1ccccc1 | inconclusive: 89.1 µM [inhibitor, single point] |
| C=C(C)COc1ccc(-c2nc(N)ncc2-c2ccc(OC)cc2)c(O)c1 | inconclusive: 39.8 µM [inhibitor, partial curve] |
| CC(=O)N1CCN(c2ccc(NC(=S)NC(=O)COc3ccc(C(C)(C)C)cc3)cc2)CC1 | inconclusive: 39.8 µM [inhibitor, partial curve] |
| NNC(=O)c1cc(O)c(O)c(O)c1 | active: 17.8 µM |
| O=[N+]([O-])c1cccc(/C=N/Nc2nnc(-c3ccccc3)c(-c3ccccc3)n2)c1 | inactive |
| CN1C=CC=C/C1=C1\SC(=S)N(CC(=O)O)C1=O | active: 50.1 µM |
| COc1ccccc1N(CC(=O)Nc1c(C)cccc1C)S(C)(=O)=O | inconclusive: 50.1 µM [inhibitor, partial curve] |

| Compound | Potency |
| --- | --- |
| COC(=O)N1C(=O)[C@@](c2ccccc2)(C2CCCCC2)N1C(=O)OC | inactive |
| COc1cc(/C=C2/C(=N)N3C=CSC3=NC2=O)ccc1OCCOc1ccc(NC(C)=O)cc1 | inactive |
| CCc1ccccc1NC1=NCC(=O)N1C1CCCC1 | inconclusive: 79.4 µM [inhibitor, single point] |
| Cc1ccc(/C=N/NC(=O)C(NC(=O)c2ccccc2)c2n[nH]c(=O)c3ccccc23)cc1 (stereo not drawn) | inconclusive: 89.1 µM [inhibitor, single point] |
| COc1ccc(CCNCC(=O)Nc2ccc(C(=O)N3CCCCC3)cc2)cc1 | active: 39.8 µM |
| CC/C=C(/NC(C)=O)c1ccccc1 | inactive |
| O=C(Nc1ccc2oc(-c3cccnc3)nc2c1)c1ccc2c(c1)OCCO2 | active: 79.4 µM |
| COc1ccccc1N1CCN(C(=O)c2cnn(-c3ccc(F)cc3F)c2C2CCNCC2)CC1 | inactive |
| O=C(Cc1ccccc1)NC(c1ccco1)c1c(O)ccc2ccccc12 (stereo not drawn) | inconclusive: 50.1 µM [inhibitor, partial curve] |
| O=C(NCC(c1ccco1)N1CCc2ccccc21)c1ccccc1Br (stereo not drawn) | inconclusive: 50.1 µM [inhibitor, partial curve] |
| O=C(CCN1CCN(CCO)CC1)Nc1ccccc1 | inactive |
| COc1ccccc1Nc1nc(C)c(C(=O)Nc2ccccc2)s1 | inactive |
| O=C(COC(=O)c1cccc(S(=O)(=O)N2CCN(c3ccccc3)CC2)c1)NCc1ccco1 | active: 44.7 µM |
| Cc1snc(S(=O)(=O)/C(C#N)=N/Nc2cccc(C(F)(F)F)c2)c1C#N | inconclusive: 44.7 µM [inhibitor, partial curve] |
| O=C1OC(C(=O)Nc2cc(C(F)(F)F)ccc2Cl)Cc2ccccc21 (stereo not drawn) | inconclusive: 89.1 µM [inhibitor, single point] |
| Cc1oc2c(C)c3oc(=O)c(CCC(=O)NCCCn4ccnc4)c(C)c3cc2c1C | inconclusive: 35.5 µM [inhibitor, partial curve] |
| CCN1CCN(c2ccc([N+](=O)[O-])cc2C(=O)c2ccc(Cl)cc2)CC1 | inconclusive: 10 µM [inhibitor, partial curve] |
| Cc1ccc(C(=O)NCCSc2c(C)[nH]c3ccccc23)cc1[N+](=O)[O-] | inconclusive: 44.7 µM [inhibitor, partial curve] |
| O=C(c1ccccc1)c1nn(-c2ccc(Cl)cc2)c(=O)cc1C(F)(F)F | inactive |
| Cc1ccc(NCc2n[nH]c(=S)n2-c2ccccc2)cc1Cl | inconclusive: 31.6 µM [inhibitor, partial curve] |
| Cc1ccc[n+](-c2nc([O-])sc2/C=N/Nc2ccc([N+](=O)[O-])cc2)c1 | active: 39.8 µM |
| CCOc1ccc(N2CC(NC(=O)C3CCCCC3)CC2=O)cc1 (stereo not drawn) | inactive |
| COc1ccc(/C=N/NC(=O)c2ccoc2C)cc1O | inactive |
| CC(C)(C)OC(=O)NN1CC(=O)N2Cc3ccccc3C[C@@H]2C1=O | inactive |
| COc1cc2cnc(-c3ccccc3)c(-c3ccc([N+](=O)[O-])cc3)c2cc1OC | inconclusive: 17.8 µM [inhibitor, full curve] |

| Compound | Potency |
| --- | --- |
| Cc1cccc(CN2CCCC(C(=O)N3CCc4ccccc4C3)C2)c1 (stereo not drawn) | active: 50.1 µM |
| COc1ccc(Nc2c(-c3ccc(C)o3)nc3cc(C)ccn23)cc1 | inconclusive: 14.1 µM [inhibitor, full curve, poor fit] |
| O=C(O)CS(=O)CC(=O)Nc1cccc(C(F)(F)F)c1 (stereo not drawn) | inconclusive: 79.4 µM [inhibitor, single point] |
| CC(C)Oc1ccc(C(=O)NC(C)(C)CO)cc1 | inconclusive: 89.1 µM [inhibitor, single point] |
| COCCn1c(C)c(C)c(S(=O)(=O)c2ccccc2)c1N | inconclusive: 79.4 µM [inhibitor, single point] |
| CCOC(=O)c1c(C)n(CC)c2ccc(OC(=O)c3ccc([N+](=O)[O-])cc3)cc12 | inconclusive: 8.91 µM [inhibitor, full curve, poor fit] |
| O=C(O)c1cccc(N2C(=O)/C(=C/c3ccc([N+](=O)[O-])cc3)C=C2c2ccccc2)c1 | active: 39.8 µM |
| Cc1cccc(-n2cc(-c3ccccc3)c3c(=O)[nH]cnc32)c1 | active: 44.7 µM |
| CC1CCN(c2ccc(NC(=O)c3cccnc3)cc2)CC1 | inconclusive: 39.8 µM [inhibitor, partial curve] |
| COc1ccc(C(=O)NCc2ccccn2)cc1 | inactive |
| O=C1c2ccccc2-c2cccc(C(=O)N3CCN(C(=O)c4ccccc4)CC3)c21 | inactive |
| Cc1cc(C)nc(CCNC(=O)c2cc(COc3ccccc3)on2)n1 | inactive |
| Cc1cccc(C)c1-n1ncc(C(=O)NC2CCCC2)c1C1CCN(C(=O)OC(C)(C)C)CC1 | inactive |
| CN(C)CCCN(C(=O)CCc1ccccc1)c1nc2ccc(Cl)cc2s1 | inconclusive: 50.1 µM [inhibitor, partial curve] |
| Cc1ccsc1C(=O)OCC(=O)Nc1cccc(S(=O)(=O)NC2=NCCCCC2)c1 | inconclusive: 79.4 µM [inhibitor, single point] |
| COc1ccc(N2CCN(C(=O)c3cc(N4C(=O)C5C6CCC(C6)C5C4=O)ccc3Cl)CC2)cc1 (stereo not drawn) | inconclusive: 79.4 µM [inhibitor, single point] |
| O=[N+]([O-])c1cc2c(cc1CN1CCN(CCOCCO)CC1)OCO2 | inconclusive: 89.1 µM [inhibitor, single point] |
| O=C(c1ccc2c(c1)CCN2S(=O)(=O)c1ccc(Cl)cc1)N1CCN(c2ccc(F)cc2)CC1 | inactive |
| COc1ccc(CCNCC(=O)Nc2ccc(OC(F)(F)F)cc2)cc1OC | inconclusive: 25.1 µM [inhibitor, single point] |
| C/C(=N/Nc1ccnc2cc(Cl)ccc12)c1ccc(N)cc1 | active: 44.7 µM |
| N#Cc1ccc(S(=O)(=O)NC2CC2)cc1 | inconclusive: 89.1 µM [inhibitor, single point] |
| O=C(c1cccc(C(F)(F)F)c1)C1CCCN(Cc2cccn2-c2ccccn2)C1 (stereo not drawn) | inconclusive: 79.4 µM [inhibitor, single point] |
| C=CCNC(=S)Nc1ccc(N2CCOCC2)c(S(=O)(=O)Nc2ccccc2Cl)c1 | inconclusive: 70.8 µM [inhibitor, partial curve] |
